# Data reported in the supplement of paper PMC8728848.
# This is one part of the list.
# Legend:
# Assay in all cases: glycan array binding signal (z-score within array); higher = stronger binding
# Settings in all cases: glycan notation: IUPAC condensed, linker removed
# [1] = biological target: Fuc(a1-2)Gal(b1-4)GlcNAc(b1-3)Gal(b1-4)GlcNAc(b1-2)Man(a1-3)[Fuc(a1-2)Gal(b1-4)GlcNAc(b1-3)Gal(b1-4)GlcNAc(b1-2)Man(a1-6)]Man(b1-4)GlcNAc(b1-4)GlcNAc
# In short: (§1)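 The binding signal is a Z-score computed within each array. Data were drawn from 3228 arrays in the Consortium for Functional Glycomics database, restricted to those with a known protein sequence. Scores were averaged over arrays of the same protein sequence at different concentrations or buffers, and over linkers, and negative values can be taken as non-binding.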
# [2] = biological target: Fuc(a1-2)Gal(b1-4)GlcNAc(b1-3)Gal(b1-4)GlcNAc(b1-3)Gal(b1-4)GlcNAc
# In short: as §1
# [3] = biological target: Fuc(a1-2)Gal(b1-4)GlcNAc(b1-3)GalNAc
# In short: as §1
# [4] = biological target: Fuc(a1-2)Gal(b1-4)GlcNAc(b1-3)[Fuc(a1-2)Gal(b1-4)GlcNAc(b1-6)]GalNAc
# In short: as §1
# [5] = biological target: Fuc(a1-2)Gal(b1-4)GlcNAc(b1-3)[Fuc(a1-3)[Gal(b1-4)]GlcNAc(b1-6)]Gal(b1-4)Glc
# In short: as §1
# [6] = biological target: Fuc(a1-2)Gal(b1-4)GlcNAc(b1-6)GalNAc
# In short: as §1
# [7] = biological target: Fuc(a1-2)Gal(b1-4)GlcNAc6S
# In short: as §1
# [8] = biological target: Fuc(a1-2)Gal(b1-4)[Fuc(a1-3)]GlcNAc
# In short: as §1
# [9] = biological target: Fuc(a1-2)Gal(b1-4)[Fuc(a1-3)]GlcNAc(b1-2)Man(a1-3)[Fuc(a1-2)Gal(b1-4)[Fuc(a1-3)]GlcNAc(b1-2)Man(a1-6)]Man(b1-4)GlcNAc(b1-4)[Fuc(a1-6)]GlcNAc
# In short: as §1
# [10] = biological target: Fuc(a1-2)Gal(b1-4)[Fuc(a1-3)]GlcNAc(b1-2)[Fuc(a1-2)Gal(b1-4)[Fuc(a1-3)]GlcNAc(b1-4)]Man(a1-3)[Fuc(a1-2)Gal(b1-4)[Fuc(a1-3)]GlcNAc(b1-2)Man(a1-6)]Man(b1-4)GlcNAc(b1-4)GlcNAc
# In short: as §1
# [11] = biological target: Fuc(a1-2)Gal(b1-4)[Fuc(a1-3)]GlcNAc(b1-3)Gal(b1-4)[Fuc(a1-3)]GlcNAc
# In short: as §1
# [12] = biological target: Fuc(a1-2)Gal(b1-4)[Fuc(a1-3)]GlcNAc(b1-3)Gal(b1-4)[Fuc(a1-3)]GlcNAc(b1-3)Gal(b1-4)[Fuc(a1-3)]GlcNAc
# In short: as §1
# [13] = biological target: Fuc(a1-2)Gal(b1-4)[Fuc(a1-3)]GlcNAc(b1-3)GalNAc
# In short: as §1
# [14] = biological target: Fuc(a1-2)Gal(b1-4)[Fuc(a1-3)]GlcNAc(b1-3)[Neu5Ac(a2-6)Gal(b1-4)GlcNAc(b1-6)]Gal(b1-4)Glc
# In short: as §1
# [15] = biological target: Fuc(a1-2)Gal3S(b1-4)GlcNAc
# In short: as §1
# [16] = biological target: Fuc(a1-2)Gal6S(b1-3)GlcNAc
# In short: as §1
# [17] = biological target: Fuc(a1-2)Gal6S(b1-3)GlcNAc6S
# In short: as §1
# Fuc(a1-2)Gal6S(b1-4)Glc = biological target: Fuc(a1-2)Gal6S(b1-4)Glc
# In short: as §1
# [18] = biological target: Fuc(a1-2)Gal6S(b1-4)Glc6S
# In short: as §1
# Fuc(a1-2)[Gal(a1-3)]Gal = biological target: Fuc(a1-2)[Gal(a1-3)]Gal
# In short: as §1
# [19] = biological target: Fuc(a1-2)[Gal(a1-3)]Gal(b1-3)GalNAc
# In short: as §1
# [20] = biological target: Fuc(a1-2)[Gal(a1-3)]Gal(b1-3)GalNAc(b1-3)Gal(a1-4)Gal(b1-4)Glc
# In short: as §1
# [21] = biological target: Fuc(a1-2)[Gal(a1-3)]Gal(b1-3)GlcNAc
# In short: as §1
# [22] = biological target: Fuc(a1-2)[Gal(a1-3)]Gal(b1-3)GlcNAc(b1-2)Man(a1-3)[Fuc(a1-2)[Gal(a1-3)]Gal(b1-3)GlcNAc(b1-2)Man(a1-6)]Man(b1-4)GlcNAc(b1-4)GlcNAc
# In short: as §1
# [23] = biological target: Fuc(a1-2)[Gal(a1-3)]Gal(b1-3)GlcNAc(b1-2)Man(a1-3)[Fuc(a1-2)[Gal(a1-3)]Gal(b1-3)GlcNAc(b1-2)Man(a1-6)]Man(b1-4)GlcNAc(b1-4)[Fuc(a1-6)]GlcNAc
# In short: as §1
# [24] = biological target: Fuc(a1-2)[Gal(a1-3)]Gal(b1-3)GlcNAc(b1-3)GalNAc
# In short: as §1
# [25] = biological target: Fuc(a1-2)[Gal(a1-3)]Gal(b1-3)GlcNAc(b1-6)GalNAc
# In short: as §1
# [26] = biological target: Fuc(a1-2)[Gal(a1-3)]Gal(b1-4)Glc
# In short: as §1
# [27] = biological target: Fuc(a1-2)[Gal(a1-3)]Gal(b1-4)GlcNAc
# In short: as §1
# [28] = biological target: Fuc(a1-2)[Gal(a1-3)]Gal(b1-4)GlcNAc(b1-2)Man
# In short: as §1
binder,measurement,setting,value
"InvD YPIII (Yersinia pseudotuberculosis), B1JSC0 (protein) MIKYFSFFKKPEPIVGILPNRQSHHILPTHIRRVAWGTLLLQLFIPLSVSFSPAIAAMKASKADTMVSYSSTEPYVLGSGETVAMVAKKYGITVDELKKINIYRTFSRPFTALTTGDEIDIPRKASPFSVDNNKDNRLSVENTLAGHAVAGATALSNGDVAKSGERMVRSAASNEFNNSAQQWLSQFGTARVQLNINDDFHLDGSAADVLIPLYDNEKSILFTQLGARNKDSRNTVNMGAGVRTFQGNWMYGANTFFDNDLTGKNRRIGVGAEAWTDYLKLSANNYFGITDWHQSRDFIDYNERPANGYDLRAEAYLPSYPQLGGKAMYEKYRGDDVALFGKDNRQKNPHAITAGVNYTPIPLVTIGAEHRAGKGGQNDSNINFQLNYRLGETWQSHIDPSAVAASRTLAGSRYDLVERNNHIVLDYQKQNLVRLSLPDSLAGDPFSQLSVTAQVTATHGLERIDWQSAELMAAGGVLKQTSKNGLEITLPEYQMNRTGGNSYILNAIAYDTQGNASSQASMLITVNAQKINIANSTLVAVPINIEANNSDTSVVTLTLKDDNNIPVTGQDVTFLSPLGTLSAMTDSGNGVYTATLTAGTVSGTTAVSSNINGSALDMTPATVTLNGNSGELSITHSMLVAAPVNIEANGSDTSVVTLTLRDSNNNPVTGQTVTFAGTLGTLGAVTEGSSGVYTATLTAGIMVGTSSITASVNSTALGVTPATVTLNGDSGNLSTTNSTLVAAPVNIEANSSDTSVVTLTLRDNNNNPVTGQTVVFTSTLGTLGNVTEQASGVYTATLTAGTVSGVASLSVSVGGNALGVTPATVTLNGDSGNLSTTNSTLVAAPVNIEANSSDTSVVTLTLRDNNNNPVTGQTVNFAGTLGTLGTVSEGSSGVYTTTLTAGTVAGVASLSVNVGGNALGVTPATVTLNGNSGNLSATNSTLVAAPVNIEANSSDTSVVTLTLRDNNNNPVTGQTVAFTSTLGTLGNVTEQASGVYTATLTAGTVSGVASLSVSVNSNALGVTPATVTLNGDSGNLSTTNSTLVAAPVNIEANSSDTSVVTLTLRDNNNNPVTGQTVAFTSTLGTLGNVTEQASGLYTATLTAGTVSGVASLSVNVGGNALGVTPATVTLNGDSGNLSATNSTLVAAPVNIEANSSDTSVVTLTLRDNNNNPVTGQTVAFTSTLGTLGNVTEQASGLYTATLTAGTVSGVASLSVNVGGTALGVTPATVTLNGDSGNLSTTNSTLVAAPVNIEANSSDTSVVTLTLRDNNNNPVTGQTVAFTSTLGTLGNVTEQASGLYTATLTAGTVSGVASLSVSVNSTALGVTPATVTLNGDSGNLSTTNSTLVAAPVNIEANSSDTSVVTLTLRDNNNNPVTGQTVAFTSTLGTLGNVTEQASGVYTATLTAGTVAGVASLSVNVGGNALGVTPATVTLNGDSGNLSTTNSTLVAAPVNIEANSSDTSVVTLTLRDNNNNPVTGQTVAFTSTLGTLGNVTEQASGVYTATLTAGTVSGVASLSVSVGSSALGVTPATVTLNGDSGNLSTTNSTLVAAPVNIEANNSDTSVVTLTLRDNNNNPVTGQTVAFTSTLGTLGNVTEQASGVYTATLTAGTVSGVASLSVSVNSNALGVTPATVTLNGDSGNLSTTNSTLVAAPVNIEANSSDTSVVTLTLRDNNNNPVTGQTVVFTSTLGTLGNVTEQASGLYTATLTAGTVSGVASLSVSVGGNALGVTGNITLAPGALDAARSILAVNKPSINADDRIGSTITFTAQDAQGNAITGLDIAFMTDLENSQIMTLVDHNDGTYTANINGTQTGIANIAVQSSGATIAGLAATMVTITPGAWNTTQATPVMTVALPITTCQSSSGVYKRYYIGIVTHELYDNYGNEISGILTYNLGAGRYTTVTSQNSSVSGSNGLTRRSNSPVSHFILTSDAYTSQAACYAERIANVNVTITVTAITDDFKTSAVNKVFILGTGSN",glycan array binding signal (z-score),[1],-0.232
same,glycan array binding signal (z-score),[2],-0.136
same,glycan array binding signal (z-score),[3],-0.185
same,glycan array binding signal (z-score),[4],0.013
same,glycan array binding signal (z-score),[5],-0.336
same,glycan array binding signal (z-score),[6],0.052
same,glycan array binding signal (z-score),[7],-0.232
same,glycan array binding signal (z-score),[8],-0.265
same,glycan array binding signal (z-score),[9],-0.135
same,glycan array binding signal (z-score),[10],-0.23
same,glycan array binding signal (z-score),[11],-0.114
same,glycan array binding signal (z-score),[12],-0.284
same,glycan array binding signal (z-score),[13],0.909
same,glycan array binding signal (z-score),[14],-0.22
same,glycan array binding signal (z-score),[15],-0.256
same,glycan array binding signal (z-score),[16],-0.089
same,glycan array binding signal (z-score),[17],0.027
same,glycan array binding signal (z-score),Fuc(a1-2)Gal6S(b1-4)Glc,-0.158
same,glycan array binding signal (z-score),[18],0.163
same,glycan array binding signal (z-score),Fuc(a1-2)[Gal(a1-3)]Gal,0.067
same,glycan array binding signal (z-score),[19],-0.148
same,glycan array binding signal (z-score),[20],-0.058
same,glycan array binding signal (z-score),[21],-0.153
same,glycan array binding signal (z-score),[22],-0.164
same,glycan array binding signal (z-score),[23],-0.004
same,glycan array binding signal (z-score),[24],-0.374
same,glycan array binding signal (z-score),[25],0.218
same,glycan array binding signal (z-score),[26],-0.359
same,glycan array binding signal (z-score),[27],-0.179
same,glycan array binding signal (z-score),[28],-0.344
